Data published in the supplement of paper PMC9446081.
Hit rate of the full screen: of about 39,000 compounds, about 220 (0.56%) showed activity. Some of the results follow.

Tested on: Escherichia coli K-12 BW25113
Experiment: relative growth (OD600 normalised to plate interquartile mean) (fraction); higher = less growth inhibition, active = 0.2 or less
Settings: 50 µM; LB; incubation time: overnight (16-24 h)
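Note: static incubation at 37 °C against the wild-type strain, values averaged over two biological replicates.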

| Structure (SMILES) | relative growth |
| --- | --- |
| CC1CCC2(OC1)OC1CC3C4CC=C5CC(O)CCC5(C)C4CCC3(C)C1C2C (configuration not stated) | inactive: 0.933 |
| OCc1ccccc1 | inactive: 1.03 |
| C[C@H]1CCCCO[C@@H](CN(C)C)[C@@H](C)CN([C@@H](C)CO)C(=O)c2cc(NC(=O)Nc3cccc4ccccc34)ccc2O1 | inactive: 0.99 |
| C[n+]1ccc(CCCO)cc1 | inactive: 0.983 |
| COc1ccc(S(=O)(=O)N(C)C[C@H]2OCCCC[C@@H](C)Oc3ccc(NS(=O)(=O)c4cn(C)cn4)cc3C(=O)N([C@H](C)CO)C[C@H]2C)cc1 | inactive: 0.979 |
| CN1C(=O)c2cc(NS(=O)(=O)c3cccc(F)c3)ccc2OC[C@@H]2O[C@H](CC(=O)NCCN3CCCCC3)CC[C@@H]21 | inactive: 1.01 |
| CC(C)NC(=O)N(C)C[C@@H]1OCCCC[C@@H](C)Oc2ccc(NC(=O)Nc3ccc(F)cc3)cc2C(=O)N([C@H](C)CO)C[C@@H]1C | inactive: 1.03 |
| C[C@@H]1CN([C@H](C)CO)C(=O)c2cccc(NS(=O)(=O)c3ccccc3)c2O[C@@H]1CN(C)Cc1ccc(Cl)c(Cl)c1 | inactive: 1.01 |
| C=CCC[C@@H](Cc1ccc(F)cc1)C(=O)OC[C@@H](Cc1c[nH]c2ccccc12)NC(=O)[C@@H](CC=C)CC(=O)N(CCO)Cc1ccccc1 | inactive: 1.1 |
| COc1ccc(NC(=O)N(C)C[C@H]2OCCCC[C@H](C)Oc3ccc(NC(=O)c4ccccc4)cc3C(=O)N([C@@H](C)CO)C[C@@H]2C)cc1 | inactive: 0.992 |
| C[N+](C)(C)CC(O)CC(=O)O.[Cl-] (configuration not stated) | inactive: 1.13 |
| Cc1nn(C)cc1NC(=O)C[C@@H]1CC[C@@H]2[C@H](COc3ccc(NC(=O)C4CCOCC4)cc3C(=O)N2C)O1 | inactive: 0.986 |
| C[C@H](CO)N1C[C@H](C)[C@@H](CN(C)Cc2ccncc2)Oc2c(NS(=O)(=O)c3ccc(F)cc3)cccc2C1=O | inactive: 1 |
| CNC(=C[N+](=O)[O-])NCCSCc1csc(CN(C)C)n1 | inactive: 0.964 |
| C[C@@H]1CN([C@H](C)CO)C(=O)c2cc(NC(=O)NC3CCCCC3)ccc2O[C@@H](C)CCCCO[C@H]1CN(C)Cc1ccc(C(=O)O)cc1 | inactive: 0.996 |
| C[C@@H]1CN([C@@H](C)CO)C(=O)c2cc(NS(=O)(=O)c3cccs3)ccc2O[C@@H]1CN(C)C(=O)Nc1cccc2ccccc12 | inactive: 1.01 |
| CCCNC(=O)N1C[C@]2(CCN(CC2)S(=O)(=O)c2ccccc2)c2c(n(c3cc(ccc23)OC)C)[C@@H]1CO | inactive: 1.04 |
| CC(=O)OC1CCC2(C)C(CCC3(C)C2CC=C2C4CC(C)(C)CCC4(C(=O)O)CCC23C)C1(C)C (configuration not stated) | inactive: 1.02 |
| COc1ccc(NC(=O)Nc2ccc3c(c2)C(=O)N([C@H](C)CO)C[C@H](C)[C@H](CN(C)Cc2ccc(C(F)(F)F)cc2)OCCCC[C@@H](C)O3)cc1 | inactive: 1.04 |
| C[C@H](C(=O)O)[C@H]1SC(=O)NC1=O | inactive: 0.993 |
| C[C@H](CO)N1C[C@H](C)[C@H](CN(C)Cc2ccc(C(F)(F)F)cc2)OCCCC[C@H](C)Oc2ccc(NC(=O)c3ccccc3)cc2C1=O | inactive: 0.999 |

| Structure (SMILES) | relative growth |
| --- | --- |
| O=C(CN1CCOCC1)NCC[C@H]1CC[C@H](NC(=O)Cc2ccccn2)[C@@H](CO)O1 | inactive: 0.991 |
| C[C@@H]1CN([C@H](C)CO)C(=O)Cc2cc(NC(=O)Cc3ccccc3)ccc2O[C@H]1CN(C)Cc1ccc(Cl)c(Cl)c1 | inactive: 0.992 |
| COc1ccccc1-c1cnc2c(c1)C(=O)N([C@H](C)CO)C[C@@H](C)[C@H](CN(C)C(=O)c1ccncc1)O2 | inactive: 1.01 |
| CO[C@@H]1CC[C@@H]2[C@H]1OCCN2C(=O)N(C)C | inactive: 1.01 |
| OC[C@H]1CC[C@@H]2O[C@H](CCc3ccc(C#Cc4ccccc4)cc3)[C@@H](n3cc(-c4ccccc4)nn3)C[C@@H]2O1 | inactive: 1.02 |
| COc1ccc(NC(=O)Nc2cccc3c2O[C@@H](CN(C)Cc2ccc(Cl)c(Cl)c2)[C@@H](C)CN([C@H](C)CO)C3=O)cc1 | inactive: 0.988 |
| CNC(=NCc1ccc(OC)cc1)NC | inactive: 0.998 |
| CC(C)NC(=O)Nc1ccc2c(c1)C(=O)N([C@@H](C)CO)C[C@@H](C)[C@@H](CN(C)C(=O)C1CCCCC1)OCCCC[C@@H](C)O2 | inactive: 1.01 |
| COc1ccc(S(=O)(=O)Nc2cccc3c2O[C@@H](CN(C)S(=O)(=O)c2ccc(C)cc2)[C@@H](C)CN([C@@H](C)CO)C3=O)cc1 | inactive: 1.03 |
| O=C(C[C@H]1CC=CCC[C@H](Cc2ccc(F)cc2)C(=O)OC[C@@H](Cc2ccccc2)NC1=O)NCCO | inactive: 0.993 |
| CS(=O)(=O)Nc1ccc([N+](=O)[O-])cc1Oc1ccccc1 | inactive: 0.925 |
| COc1cc(-c2coc3cc(OC4OC(CO)C(O)C(O)C4O)c(OC)c(O)c3c2=O)cc(O)c1OC (configuration not stated) | inactive: 1.09 |
| O=C(C[C@@H]1CC[C@@H]2[C@H](COC[C@H](O)CN2S(=O)(=O)c2ccc(Cl)cc2)O1)N1CCc2ccccc2C1 | inactive: 1.01 |
| C[C@H](CO)N1C[C@H](C)[C@H](CN(C)S(=O)(=O)c2ccccc2C#N)OCc2cnnn2CCCC1=O | inactive: 1.01 |
| COc1ccc(NC(=O)Nc2ccc3c(c2)C(=O)N([C@@H](C)CO)C[C@@H](C)[C@H](CN(C)S(=O)(=O)c2ccc(C)cc2)OCCCC[C@@H](C)O3)cc1 | inactive: 1.02 |
| O=S(=O)([O-])c1cc(O)c2c(N=Nc3ccc(Nc4ccccc4)c4c(S(=O)(=O)[O-])cccc34)cc(S(=O)(=O)[O-])cc2c1.[Na+].[Na+].[Na+] | inactive: 1.25 |
| CC1(C)OC(=O)C2(C(=O)O1)[C@@H](c1ccc(-c3ccc(-c4ccc(O)cc4)cc3)cc1)CC(=O)C[C@H]2c1ccccc1 | inactive: 1.02 |
| Cc1noc(C)c1S(=O)(=O)N(C)C[C@@H]1OCCCC[C@@H](C)Oc2ccc(N(C)C)cc2C(=O)N([C@@H](C)CO)C[C@H]1C | inactive: 0.99 |
| Cc1ccnc(N)c1 | inactive: 0.966 |
| COc1ccc(C(=O)O)cc1 | inactive: 1.04 |
| C[C@H]1CN([C@@H](C)CO)C(=O)c2cc(NC(=O)Cc3cn(C)c4ccccc34)ccc2O[C@@H]1CN(C)Cc1ccc(Oc2ccccc2)cc1 | inactive: 0.963 |

| Structure (SMILES) | relative growth |
| --- | --- |
| OS(=O)(=O)c1ccc(cc1)/C/1=C\2/N/C(=C(\C3=N/C(=C(/c4ccc(cc4)S(=O)(=O)O)c4ccc([nH]4)/C(=C\4/C=CC1=N4)c1ccc(cc1)S(=O)(=O)O)C=C3)c1ccc(cc1)S(=O)(=O)O)C=C2 | inactive: 0.994 |
| COc1ccc(CN(C)C[C@H]2Oc3c(NC(=O)Nc4ccc(C(F)(F)F)cc4)cccc3C(=O)N([C@H](C)CO)C[C@@H]2C)cc1 | inactive: 0.668 |
| CCCNC(=O)Nc1ccc2c(c1)C(=O)N(C)C[C@H](OC)[C@@H](C)CN(Cc1ccc(-c3ccccn3)cc1)[C@H](C)CO2 | inactive: 0.995 |
| Cc1noc(C)c1NC(=O)Nc1ccc2c(c1)C(=O)N([C@H](C)CO)C[C@H](C)[C@H](CN(C)Cc1ccc(-c3ccccc3)cc1)O2 | inactive: 0.872 |
| CC(C)(C)S(=O)N1Cc2cc(C(=O)NCc3ccc4c(c3)OCO4)nc(-c3cccc(-c4cccc(F)c4)c3)c2[C@@H]1CCO (some centres not stated) | inactive: 1.02 |
| C[C@@H]1CN([C@H](C)CO)C(=O)c2c(c3ccccc3n2C)-c2ccccc2CO[C@@H]1CN(C)Cc1ccc(C(F)(F)F)cc1 | inactive: 1.08 |
| CC(=O)N1CSC[C@H]1C(=O)O | inactive: 0.997 |
| C[C@H]1CN([C@@H](C)CO)C(=O)c2cccc(NC(=O)Nc3ccc4c(c3)OCO4)c2O[C@H]1CN(C)C(=O)Nc1ccc(C(F)(F)F)cc1 | inactive: 0.95 |
| O=C(NCc1ccncc1)C(=O)NC[C@H]1OCCN1S(=O)(=O)c1ccc(F)cc1 | inactive: 1.02 |
| C[C@@H]1CN([C@@H](C)CO)C(=O)c2cc(NC(=O)CCC(F)(F)F)ccc2O[C@@H]1CN(C)S(=O)(=O)c1cn(C)cn1 | inactive: 0.979 |
| CCCC#Cc1cnc2c(c1)C(=O)N([C@H](C)CO)C[C@H](C)[C@H](CN(C)S(=O)(=O)c1cccc(OC)c1)O2 | inactive: 1.05 |
| O=C(O)c1cncc(C(=O)O)c1 | inactive: 1.04 |
| C[C@H](N)C(=O)O | inactive: 1.01 |
| Cc1noc(C)c1S(=O)(=O)N(C)C[C@@H]1OCCCC[C@H](C)Oc2ccc(N(C)C)cc2C(=O)N([C@@H](C)CO)C[C@H]1C | inactive: 0.967 |
| C[C@H](CO)N1C[C@H](C)[C@H](CN(C)S(C)(=O)=O)Oc2cc(-c3cccc(F)c3)ccc2S1(=O)=O | inactive: 1.03 |
| CC1(C)CCC(c2ccc(Cl)cc2)=C(CN2CCN(c3ccc(C(=O)NS(=O)(=O)c4ccc(N[C@H](CCN5CCOCC5)CSc5ccccc5)c(S(=O)(=O)C(F)(F)F)c4)cc3)CC2)C1 | inactive: 1.05 |
| CN1CCN(C(=O)C[C@H]2CC[C@H]3[C@@H](COC[C@@H](O)CN3C(=O)Nc3ccc4c(c3)OCO4)O2)CC1 | inactive: 1.01 |
| C[C@@H]1CCCCO[C@@H](CN(C)C(=O)Nc2ccc(C(F)(F)F)cc2)[C@@H](C)CN([C@H](C)CO)C(=O)c2cc(NC(=O)Nc3ccccc3)ccc2O1 | inactive: 1.02 |
| CCCNC(=O)N(C)C[C@@H]1Oc2ncc(-c3ccc(C(=O)N(C)C)cc3)cc2C(=O)N([C@H](C)CO)C[C@@H]1C | inactive: 0.991 |
| COc1ccc(CN(C)C[C@H]2Oc3ccc(NS(=O)(=O)c4cn(C)cn4)cc3C(=O)N([C@@H](C)CO)C[C@H]2C)cc1 | inactive: 1.02 |
